Where a name gives a salt, the structure may show the parent alone. In all, about 2,800 compounds were measured (“cell viability relative to vehicle”: median about 1.1, lowest 2% from about 0.19 on). The list shows a part of the results.
system: NCI-H2228 parental; test: cell viability relative to vehicle (fraction of vehicle); NCI-H2228 is an ALK-positive lung cancer line and DTP means drug-tolerant persister; higher = less growth inhibition; conditions: 100 nM; treatment time 6 days
Method in brief: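 Parental NCI-H2228 cells and drug-tolerant persister cells (made with 1000 nM of a targeted drug for 13 days) were seeded in 384-well plates. The next day, the 3114-agent TargetMol anti-cancer compound library was added at 100 nM, with DMSO as vehicle. After 6 days, ATP was read with the CellTiter-Glo 3D Cell Viability Assay. Each value is cell viability relative to vehicle-treated cells.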

Row | SMILES | cell viability
1 | CN1[C@@H]2C[C@@H](OC(=O)[C@H](CO)c3ccccc3)C[C@H]1[C@@H]1O[C@@H]12 [Scopolamine HBr] | 1.07
2 | CCOC(=O)c1cncn1[C@H](C)c1ccccc1 [Etomidate] | 0.992
3 | CNC(=O)Oc1cccc2ccccc12 [Carbaryl] | 0.859
4 | CC(O)(CS(=O)(=O)c1ccc(F)cc1)C(=O)Nc1ccc(C#N)c(C(F)(F)F)c1 (stereo not given) [Bicalutamide] | 1.18
5 | CN1CCc2cc3c(cc2C1C1OC(=O)c2c1ccc1c2OCO1)OCO3 (single isomer, unassigned; (+)) [(+)-Bicuculline] | 1.16
6 | NCC1(CC(=O)O)CCCCC1 [Gabapentin] | 1.11
7 | O=c1cccc2n1C[C@@H]1CNC[C@H]2C1 [Cytisine] | 1.18
8 | O=C([O-])C(Cl)Cl.[Na+] [Sodium Dichloroacetate] | 1.09
9 | CO[C@H]1C[C@H](O[C@H]2CC[C@]3(C)[C@H]4CC[C@]5(C)[C@@H](C6=CC(=O)OC6)CC[C@]5(O)[C@@H]4CC[C@]3(O)C2)O[C@H](C)[C@H]1O[C@@H]1O[C@H](CO)[C@@H](O)[C@H](O)[C@H]1O [Periplocin] | 0.315
10 | C[C@]12CC[C@H](O)C[C@H]1CC[C@@H]1[C@@H]2CC[C@]2(C)[C@@H](c3ccc(=O)oc3)C[C@H]3O[C@]132 [Resibufogenin] | 1.03
11 | CC(=O)O[C@H]1C(=O)[C@@]2(C)[C@H]([C@H](OC(=O)c3ccccc3)[C@]3(O)C[C@H](O)C(C)=C1C3(C)C)[C@]1(OC(C)=O)CO[C@@H]1C[C@@H]2O [Baccatin III] | 0.968
12 | CC(C)(C)c1cc(C=C(C#N)C#N)cc(C(C)(C)C)c1O [Tyrphostin 9] | 1.04
13 | O=C(O)c1nn(Cc2ccc(Cl)cc2Cl)c2ccccc12 [Lonidamine] | 0.993
14 | COc1ccc2c(c1OC)CN1CCc3cc4c(cc3C1C2)OCO4 (stereo not given) [Tetrahydroberberine THB] | 1.1
15 | O=C(O)CNC(=O)C1C(=O)N(C2CCCCC2)C(=O)N(C2CCCCC2)C1=O [Daprodustat] | 1.04
16 | CN(C(=O)/C=C/c1ccoc1)[C@@H]1CC[C@@]2(O)[C@H]3Cc4ccc(O)c5c4[C@@]2(CCN3CC2CC2)[C@H]1O5 [Nalfurafine hydrochloride] | 0.993
17 | N#C[C@H](O[C@@H]1O[C@H](CO[C@@H]2O[C@H](CO)[C@@H](O)[C@H](O)[C@H]2O)[C@@H](O)[C@H](O)[C@H]1O)c1ccccc1 [Amygdalin] | 1.26
18 | COc1cc2c(c(OC)c1OC)-c1ccc(OC)c(=O)cc1[C@@H](NC(C)=O)CC2 [Colchicine] | 0.305
19 | CN1C[C@H](CNC(=O)OCc2ccccc2)C[C@@H]2c3cccc4c3c(cn4C)C[C@H]21 [Metergoline] | 1.07
20 | CC(=O)O[C@H]1CC[C@@]2(C)C(=CC[C@@H]3[C@@H]2CC[C@]2(C)C(=O)CC[C@@H]32)C1 [Dehydroepiandrosterone acetate] | 1.15
21 | CC(C)OC(=O)[C@H](C)N[P@](=O)(CO[C@H](C)Cn1cnc2c(N)ncnc21)Oc1ccccc1 [Tenofovir alafenamide] | 1.22
22 | COc1cc([C@@H]2c3cc4c(cc3[C@H](O)[C@H]3COC(=O)[C@H]23)OCO4)cc(OC)c1O [4'-Demethylpodophyllotoxin] | 0.68
23 | Oc1cc(O)cc(/C=C/c2c(O)cccc2O)c1 [Gnetol] | 1.05
24 | CC(C)c1cccc(C(C)C)c1O [Propofol] | 0.976
25 | C[C@H](CS(C)(=O)=O)n1ccc2c(C(F)(F)F)c(C#N)ccc21 | 1.12
